From PubChem BioAssay AID1030 (National Center for Advancing Translational Sciences (NCATS), 2008)
Where “and” joins values, the source holds several entries; their conditions need not be identical. Equal entries are not always repeated. In all, about 220,000 compounds went through this assay and about 16,000 (7.3%) were called active. This list was built around the results that the source calls inconclusive (neither active nor inactive); the mix of calls is not that of the screen. The call rests on the fitted dose curve; in most records, active means well fitted inhibition curve with a large enough effect (not every such curve was filed as active); inconclusive means small, poorly fitted or top-dose-only effect, or another doubt; inactive means no such curve, though single readings can be large or run the other way. A potency beside an inconclusive call is a rough fit, not a confirmed value.

molecular target: Aldehyde dehydrogenase 1A1 (Homo sapiens) (UniProt P00352); assay: qHTS Assay for Inhibitors of Aldehyde Dehydrogenase 1 (ALDH1A1); details: Purified ALDH1A1, NADH fluorescence, propionaldehyde substrate; series mostly up to 75.3 µM; activity, negative = inhibition: at the top concentration;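 on activity, negative = inhibition: plate controls were no enzyme wells and a reference inhibitor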
UniProt P00352, sequence (P00352 whole entry, looked up): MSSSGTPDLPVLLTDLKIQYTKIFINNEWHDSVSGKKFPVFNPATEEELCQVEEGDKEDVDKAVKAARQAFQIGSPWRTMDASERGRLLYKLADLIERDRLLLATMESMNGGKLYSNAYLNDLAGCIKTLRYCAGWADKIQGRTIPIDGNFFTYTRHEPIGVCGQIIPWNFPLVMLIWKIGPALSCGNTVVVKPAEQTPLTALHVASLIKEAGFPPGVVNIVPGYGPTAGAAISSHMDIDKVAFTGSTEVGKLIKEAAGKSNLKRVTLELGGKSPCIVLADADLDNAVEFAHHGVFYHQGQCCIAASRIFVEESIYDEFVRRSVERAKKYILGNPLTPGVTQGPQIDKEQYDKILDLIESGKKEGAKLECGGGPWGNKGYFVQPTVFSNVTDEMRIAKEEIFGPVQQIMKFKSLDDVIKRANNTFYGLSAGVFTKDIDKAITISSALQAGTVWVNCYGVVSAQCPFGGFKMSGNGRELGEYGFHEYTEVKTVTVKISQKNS
Potency means the concentration at half of the fitted maximal effect; tags describe the fitted curve by direction and shape.

| SMILES | Potency | activity, negative = inhibition |
| --- | --- | --- |
| Cc1ccc(C(=O)Oc2oc(-c3ccco3)nc2C=Nc2ccccc2)cc1 | inconclusive: 14.1 µM [inhibitor, partial curve, poor fit] |  |
| CCN(C(=O)CN1CCN(c2ccc(O)cc2)CC1)c1c(N)n(Cc2ccccc2)c(=O)[nH]c1=O | inconclusive: 35.5 µM [inhibitor, single point] |  |
| O=C1C(=O)N(CCN2CCOCC2)C(c2ccccn2)/C1=C(/O)c1ccc(F)cc1 (stereo not drawn) | active: 25.1 µM |  |
| O=C(COc1ncnc2cc([N+](=O)[O-])ccc12)N(CCc1ccccc1)Cc1ccccc1 | inconclusive: 31.6 µM [inhibitor, single point] |  |
| Cc1ccc2c(c1)C(=O)C(=O)N2CCCOc1ccccc1 | active: 0.112 µM |  |
| CC(/C=N/N1C(=O)CSC1=S)=C\c1ccccc1 | inconclusive: 35.5 µM [inhibitor, single point] |  |
| CN1CCN(c2nc(Nc3ccc(O)cc3)nc3ccccc23)CC1 |  | inactive: 3.31% |
| CC1Cc2ccccc2N1C(=O)CSc1nnc2n1C(C)(C)Cc1ccccc1-2 (stereo not drawn) |  | inactive: -7.72% |
| Cn1c(SCc2nc3ccccc3c(=O)[nH]2)nc2ccccc21 | inconclusive: 28.2 µM [inhibitor, single point] |  |
| Cc1ccc(S(=O)(=O)NC(CC(C)C)C(=O)N2CCC(C)CC2)cc1 (stereo not drawn) | inconclusive: 39.8 µM [inhibitor, single point] |  |
| Cc1ccccc1N1C(=O)c2cc(S(N)(=O)=O)c(Cl)cc2NC1C (stereo not drawn) | inconclusive: 28.2 µM [inhibitor, partial curve] and inconclusive: 31.6 µM [inhibitor, partial curve] |  |
| Cc1ccccc1NC(=S)NCCc1ccc(S(N)(=O)=O)cc1 |  | inactive: -6.01% |
| COc1cccc(C2CC(c3cccs3)=NN2S(C)(=O)=O)c1 (stereo not drawn) |  | inactive: -4.12% |
| Cc1cccc(-c2nnc(SCC(=O)NCc3ccc4c(c3)OCO4)n2C)c1 |  | inactive: 0.327% |
| O=C(NC(=O)c1cccc(Cl)c1)OC[C@@H]1CCCN2CCCCC12 (stereo partly drawn) | inconclusive: 39.8 µM [inhibitor, single point] |  |
| CC1=C(/C=C/C(C)=N\NC(=O)c2ccncc2)C(C)(C)CCC1 | inconclusive: 12.6 µM [inhibitor, partial curve] |  |
| Cc1ccc(NC(=O)CCNS(=O)(=O)c2cccc3nonc23)cc1Cl | inconclusive: 39.8 µM [inhibitor, single point] |  |
| CC1CC(C)CN(C(=O)c2ccc3c(c2)N(Cc2ccccc2)CCS3)C1 (stereo not drawn) | inconclusive: 39.8 µM [inhibitor, single point] |  |
| CCCCN(CCCC)c1ccc(C(=O)c2ccccc2C(=O)O)c(O)c1 | inconclusive: 22.4 µM [inhibitor, single point] |  |
| COC(=O)c1sc(NC(=O)c2cccc([N+](=O)[O-])c2)c(C(N)=O)c1C | active: 10 µM |  |
| CC(=O)c1c(C)[nH]c(C(=O)OCC(=O)Nc2ccc(Cl)cc2[N+](=O)[O-])c1C |  | inactive: 6.18% |
| CN(C(=O)COC(=O)c1ccc(S(=O)(=O)N2CCOCC2)cc1)C1CCCCC1 |  | inactive: 2.9% |
| Cc1ccc(C)n1-c1ccc(C#N)cn1 | inconclusive: 39.8 µM [inhibitor, single point] |  |

| SMILES | Potency | activity, negative = inhibition |
| --- | --- | --- |
| COC(=O)c1ccccc1NC(=O)c1c(O)c2cccc3c2n(c1=O)CCC3 | inconclusive: 3.55 µM [inhibitor, partial curve] |  |
| C=CCn1c(N/N=C/c2ccc(O)cc2)nc2ccccc2c1=O | inconclusive: 15.8 µM [inhibitor, partial curve] |  |
| CCOC(=O)c1cn(Cc2c(C)c(C)c(C)c(C)c2C)nn1 |  | inactive: -0.429% |
| N#C/C(C(=O)NCc1ccco1)=C1/SC(Cc2ccc(F)cc2)C(=O)N1c1ccccc1 (stereo not drawn) | inconclusive: 25.1 µM [inhibitor, single point] |  |
| CCOC(=O)c1ccc(NS(=O)(=O)c2ccc(SC)cc2)cc1 | inconclusive: 39.8 µM [inhibitor, single point] |  |
| COc1ccc2cc3cc(C(=O)N4CCN(Cc5ccc6c(c5)OCO6)CC4)oc3nc2c1 | inconclusive: 35.5 µM [inhibitor, partial curve] |  |
| O=C(/C=C/c1ccco1)Nc1nc(-c2ccc(F)c(F)c2)cs1 | inconclusive: 39.8 µM [inhibitor, single point] |  |
| O=C(Cc1ccc2c(c1)OCCO2)N1CCN(S(=O)(=O)c2cccc(Cl)c2Cl)CC1 | inconclusive: 35.5 µM [inhibitor, partial curve] |  |
| CC(/C=N/NC(=O)c1cc(-c2cccnc2)nc2c1c(C)nn2-c1ccccc1)=C\c1ccccc1 | inconclusive: 31.6 µM [inhibitor, partial curve] |  |
| Cc1cc(C(=O)CC#N)c(C)n1-c1c(C)n(C)n(-c2ccccc2)c1=O |  | inactive: 17.2% |
| COc1ccc(CCNC(=O)Cn2nnc(-c3ccc(N(C)C)cc3)n2)cc1OC | inconclusive: 28.2 µM [inhibitor, partial curve] |  |
| O=C(Nc1ccc2nn(-c3ccccc3)nc2c1)c1ccc(Br)o1 | inconclusive: 25.1 µM [inhibitor, partial curve] |  |
| COCCCNC(=O)c1ccc2nc3ccccc3c(=O)n2c1 | inconclusive: 28.2 µM [inhibitor, partial curve] |  |
| CCOC(=O)c1sc(=S)n(C)c1NC(=O)c1ccc(F)cc1 | active: 2.51 µM |  |
| O=c1oc(-c2cccs2)nc2sc3c(c12)CCCC3 | inconclusive: 25.1 µM [inhibitor, partial curve] |  |
| O=C(COc1cccnc1[N+](=O)[O-])Nc1ccc(N2CCOCC2)cc1 | inconclusive: 25.1 µM [inhibitor, single point] |  |
| CCCC(=O)Nc1ccc(NC(=O)C23CC4CC(CC(C4)C2)C3)cn1 | inconclusive: 25.1 µM [inhibitor, partial curve] |  |
| CCN1CCN(C(=O)CCCn2c(C)c3cnn(-c4ccccc4)c(=O)c3c2C)CC1 | inconclusive: 22.4 µM [inhibitor, partial curve] |  |
| CCOC(=O)Cc1csc(N/N=C/c2ccccc2)n1 |  | inactive: 12.7% |
| CCOC(=O)C1=C(O)/C(=C\c2ccc(CNC(=O)C(=O)Nc3ccccc3)o2)N=C1C | active: 11.2 µM |  |
| CCn1nnnc1-c1ccc(OC)c(S(=O)(=O)Nc2ccc(C(=O)OC)cc2)c1 | active: 7.08 µM |  |
| CCCc1noc(-c2cccc([N+](=O)[O-])c2)n1 | inconclusive: 39.8 µM [inhibitor, single point] |  |
| Cc1cccc(-n2c(=S)[nH]c3c(oc4ccccc43)c2=O)c1 | inconclusive: 25.1 µM [inhibitor, partial curve] |  |

| SMILES | Potency | activity, negative = inhibition |
| --- | --- | --- |
| O=[N+]([O-])c1ccc(CSc2nnc(SCc3ccc(Cl)cc3)s2)cc1 | inconclusive: 31.6 µM [inhibitor, single point] |  |
| COC(=O)CCC(NC(=O)c1cc(-c2ccc3c(c2)OCCO3)oc1C)C(=O)OC (stereo not drawn) | active: 20 µM |  |
| Cc1cccc(OCC(O)Cn2c(=N)n(CCN3CCCCC3)c3ccccc32)c1 (stereo not drawn) | inconclusive: 28.2 µM [inhibitor, single point] |  |
| CCc1nnc(NC(=O)CSc2nc3cc(OC)ccc3cc2C)s1 | inconclusive: 1.78 µM [inhibitor, partial curve] |  |
| CCCCCSc1nc2c(c(=O)[nH]c(=O)n2C)n1C |  | inactive: 5.08% |
| N#Cc1nc(-c2cccs2)oc1N1CCN(c2ccccc2)CC1 | inconclusive: 25.1 µM [inhibitor, partial curve] |  |
| COc1ccccc1C(=O)Nc1ccc2c(c1)nc(CN1CCN(C(C)=O)CC1)n2C | inconclusive: 35.5 µM [inhibitor, single point] |  |
| Cc1cccn2c(=O)c(C=O)c(N3CCN(c4ccccc4)CC3)nc12 | inconclusive: 39.8 µM [inhibitor, single point] |  |
| COc1ccc(-n2nc(C(=O)N3CCN(c4ccc(F)cc4)CC3)c3ccccc3c2=O)c(OC)c1 | inconclusive: 28.2 µM [inhibitor, partial curve] |  |
| O=S(=O)(NCc1cc(-c2ccccc2Cl)no1)c1ccc(Cl)cc1 | inconclusive: 20 µM [inhibitor, single point] |  |
| CCN1/C(=C/c2ccc3ccccc3[n+]2CC)C=Cc2ccccc21 | inconclusive: 28.2 µM [inhibitor, single point] |  |
| Clc1ccc(SCc2cn3ccccc3n2)cc1 |  | inactive: 0.404% |
| O=c1[nH]c(NCCO)nc2c1C1(CCCC1)Cc1ccccc1-2 | inconclusive: 31.6 µM [inhibitor, partial curve] |  |
| O=C(CSc1nnnn1Cc1ccccc1)NCC(=O)c1ccccc1 | active: 8.91 µM |  |
| COc1ccc(Oc2coc3c(CN(C)C)c(O)ccc3c2=O)cc1 | inconclusive: 39.8 µM [inhibitor, single point] |  |
| O=C1c2ccccc2C(=O)N1CCCCN(C(=O)c1cccc([N+](=O)[O-])c1)c1ccc(Cl)cc1 | active: 3.16 µM |  |
| CCN1CCN(c2nc3c(C)cccn3c(=O)c2/C=C(\C#N)S(=O)(=O)c2ccc(C)cc2)CC1 |  | inactive: -9.02% |
| Cc1nc2cnc(N(C)C)nc2n(CCc2ccccc2)c1=O | inconclusive: 35.5 µM [inhibitor, single point] |  |
| COc1cc([N+](=O)[O-])ccc1NC(=O)C[n+]1ccccc1C | inconclusive: 22.4 µM [inhibitor, single point] |  |
| O=C(N/N=C/c1ccccc1F)c1csc2c1CCCC2 | inconclusive: 39.8 µM [inhibitor, single point] |  |
| O=[N+]([O-])c1cccnc1N1CCC(c2cc(-c3cccc(C(F)(F)F)c3)n[nH]2)CC1 |  | inactive: -5.57% |
| Cc1nnc(SCC2=C(C(=O)O)N3C(=O)C(NC(=O)Cn4nc(C)c(Cl)c4C)C3SC2)s1 (stereo not drawn) |  | inactive: 3.56% |
